Measurements from the supplement of paper PMC10126150.
Values marked as one replicate rest on one cluster of the flow cell; about a third of the high ones do not repeat.
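Note: ATP exposure 15 min at 22 °C before imaging.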

These sequences were tested on ATP (assay: switch fluorescence ratio, 500 uM ATP over buffer (Cy3 cluster intensity, sum of 5 cycles each) (fold (ratio)); higher = stronger signal-on switching upon ATP binding; sequences stand for … in TCGTCGGCAGCGTCAGATGTGTATAAGAGACAGTTTTTTTTTTTTTTTTTTTTTTTTT…TC). Details: aptamer strand: ATP DNA aptamer (quencher-CACCTGGGGGAGTATTGCGGAGGAAGG + anchor), 100 nM annealed; ATP concentration: 500 uM; one replicate.
How it was run: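 For every switch-domain sequence, the fluorescence ratio is the mean of per-cluster values, each being summed target-cycle Cy3 intensity over summed buffer-cycle Cy3 intensity. Clusters outside 100-1000 RFU were excluded. On a modified Illumina MiSeq flow-cell, the Cy3-labelled switching-strand clusters were annealed to 100 nM quencher-labelled ATP aptamer, imaged in selection buffer and then after 15 min with 500 uM ATP at 22 °C. Five such cycles were run, with NaOH stripping and re-annealing between them.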
TGAATTTGA gave a switch fluorescence ratio of 0.964.
With TGAC the switch fluorescence ratio was 1.03.
Sequence TGACACGTTT has a switch fluorescence ratio of 1.
Sequence TGACAGTATG has a switch fluorescence ratio of 1.05.
TGACAGTATT showed a switch fluorescence ratio of 1.06.
In the case of TGACAGTTTT, the switch fluorescence ratio is reported as 1.01.
Work on TGACATCTGT yielded a switch fluorescence ratio of 0.984.
TGACATTCAG showed a switch fluorescence ratio of 1.
TGACATTGAT showed a switch fluorescence ratio of 0.985.
TGACCCGGCT was tested, and the switch fluorescence ratio was 1.01.
TGACCCGGGG gave a switch fluorescence ratio of 1.01.
TGACCGAGTT gave a switch fluorescence ratio of 0.986.
For TGACCTAAGG, the switch fluorescence ratio was 0.993.
TGACCTCGGA was tested, and the switch fluorescence ratio was 1.
TGACCTGGGG was tested, and the switch fluorescence ratio was 1.04.
With TGACGCGAAG the switch fluorescence ratio was 1.03.
TGACGGTCTT was tested, and the switch fluorescence ratio was 1.
Work on TGACTACCAG yielded a switch fluorescence ratio of 1.07.
For TGACTAGTTA, the switch fluorescence ratio was 1.
For TGACTATCTC, the switch fluorescence ratio was 1.08.
TGACTATTAC gave a switch fluorescence ratio of 1.21.
TGACTGCAGC showed a switch fluorescence ratio of 1.04.
With TGACTGGTAA the switch fluorescence ratio was 1.2.
Work on TGACTGTCGT yielded a switch fluorescence ratio of 0.961.
Sequence TGACTTGCCT has a switch fluorescence ratio of 0.979.
TGAGAAAGGC showed a switch fluorescence ratio of 1.18.
Work on TGAGAGACGA yielded a switch fluorescence ratio of 0.987.
Sequence TGAGAGCTAA has a switch fluorescence ratio of 1.02.
Sequence TGAGAGGAAT has a switch fluorescence ratio of 0.965.
Sequence TGAGATCTTT has a switch fluorescence ratio of 1.
TGAGATGATC was tested, and the switch fluorescence ratio was 1.1.
For TGAGCAACGG, the switch fluorescence ratio was 0.957.
TGAGCACCTG gave a switch fluorescence ratio of 1.01.
In the case of TGAGCAGCAT, the switch fluorescence ratio is reported as 0.997.
TGAGCCCGAG was tested, and the switch fluorescence ratio was 1.01.
Sequence TGAGCCGTTT has a switch fluorescence ratio of 1.04.
In the case of TGAGCCTTTT, the switch fluorescence ratio is reported as 1.02.
For TGAGCGTCTC, the switch fluorescence ratio was 1.
TGAGCGTGCC was tested, and the switch fluorescence ratio was 0.987.
Work on TGAGCTAGAG yielded a switch fluorescence ratio of 1.03.
Sequence TGAGGAATA has a switch fluorescence ratio of 1.02.
With TGAGGACTAG the switch fluorescence ratio was 1.01.
Sequence TGAGGCCTAT has a switch fluorescence ratio of 1.03.
With TGAGGCGTAA the switch fluorescence ratio was 1.07.
Work on TGAGGTGGGA yielded a switch fluorescence ratio of 1.01.
Sequence TGAGTAATGG has a switch fluorescence ratio of 1.1.
Sequence TGAGTATATT has a switch fluorescence ratio of 1.01.
TGAGTCAGGA was tested, and the switch fluorescence ratio was 1.04.
TGAGTGCGTG was tested, and the switch fluorescence ratio was 0.928.
With TGAGTGGCAC the switch fluorescence ratio was 0.995.
TGAGTGGTTG gave a switch fluorescence ratio of 1.02.
In the case of TGAGTGTAT, the switch fluorescence ratio is reported as 1.01.
In the case of TGAGTTCAGA, the switch fluorescence ratio is reported as 0.968.
TGAGTTGGCC showed a switch fluorescence ratio of 0.979.
With TGAGTTGTAA the switch fluorescence ratio was 0.969.
TGATAATGGT showed a switch fluorescence ratio of 0.99.
In the case of TGATAGAGCA, the switch fluorescence ratio is reported as 1.02.
Work on TGATAGGAGG yielded a switch fluorescence ratio of 0.997.
TGATAGGATG gave a switch fluorescence ratio of 0.965.
TGATAGGGAC gave a switch fluorescence ratio of 0.998.
In the case of TGATAGGGCA, the switch fluorescence ratio is reported as 1.04.
TGATAGTGGA gave a switch fluorescence ratio of 1.
Work on TGATATCATA yielded a switch fluorescence ratio of 1.07.
Work on TGATATGTCC yielded a switch fluorescence ratio of 1.04.
In the case of TGATCCAGGT, the switch fluorescence ratio is reported as 1.17.
For TGATCCGTA, the switch fluorescence ratio was 1.05.
With TGATCGATTA the switch fluorescence ratio was 0.984.
TGATCGCGCT showed a switch fluorescence ratio of 1.02.
TGATCTAATA was tested, and the switch fluorescence ratio was 1.01.
Work on TGATCTTCAG yielded a switch fluorescence ratio of 1.03.
TGATGAGTA showed a switch fluorescence ratio of 1.03.
For TGATGATGCG, the switch fluorescence ratio was 1.01.
TGATGATGCT was tested, and the switch fluorescence ratio was 0.951.
Work on TGATGATTAC yielded a switch fluorescence ratio of 1.08.
Sequence TGATGCGTTA has a switch fluorescence ratio of 1.02.
TGATGCTCCG gave a switch fluorescence ratio of 0.993.
